Source: PubChem BioAssay AID1476 (National Center for Advancing Translational Sciences (NCATS), 2009)
About 4,500 (2.2%) of roughly 200,000 compounds were called active. This list was built around the results that the source calls inconclusive (neither active nor inactive); the mix of calls is not that of the screen. Calls follow the shape of the dose curve; as a rule, active = well fitted inhibition curve with a large enough effect; inconclusive = small, poorly fitted or top-dose-only effect, or effect the other way; inactive = flat fitted curve, though single readings scatter. Where the call is inconclusive, the potency comes from a doubtful curve fit.

Biological target: Cruzipain (Trypanosoma cruzi) (UniProt P25779)
Assay: qHTS Assay for Promiscuous and Specific Inhibitors of Cruzain (without detergent); also: nearly all actives have a fitted effect of over 40% in size;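 as to max response, negative = inhibition: plate controls were enzyme without inhibitor for no effect and buffer without enzyme for full effect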
Conditions: purified cruzain, Z-FR-AMC fluorescence, no detergent
Outline: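 Detergent-free condition (0.00005% Triton X-100) in acetate buffer pH 5.5 with DTT. 1.5 nM enzyme and compound were pre-mixed 15 min, then 2 uM Z-FR-AMC substrate added; reaction progress from fluorescence change between first and third reads (60 s).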
Potency is read from the fitted curve at half-maximal effect; tags tell the direction and shape of the fitted curve.

Chain of UniProt P25779 (P25779 whole entry, looked up): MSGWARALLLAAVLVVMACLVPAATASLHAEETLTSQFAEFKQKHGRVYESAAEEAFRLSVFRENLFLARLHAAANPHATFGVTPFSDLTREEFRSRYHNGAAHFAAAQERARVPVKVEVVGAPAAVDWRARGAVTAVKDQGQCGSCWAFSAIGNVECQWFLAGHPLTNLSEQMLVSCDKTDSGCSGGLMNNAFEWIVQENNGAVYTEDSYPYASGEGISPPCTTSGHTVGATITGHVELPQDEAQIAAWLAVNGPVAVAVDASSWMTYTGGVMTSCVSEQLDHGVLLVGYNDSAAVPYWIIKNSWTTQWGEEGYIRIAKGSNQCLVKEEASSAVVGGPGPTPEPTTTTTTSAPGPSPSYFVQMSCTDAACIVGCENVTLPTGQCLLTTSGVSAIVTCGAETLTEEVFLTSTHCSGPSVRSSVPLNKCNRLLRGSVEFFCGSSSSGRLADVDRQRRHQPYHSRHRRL

Question: N#CCCN1CCN(C(=S)c2ccc(-c3ccc(Cl)cc3)o2)CC1 was tested. Which Potency did it give?
Answer: The Potency was inconclusive: 39.8 µM [activator, single point].

Question: N#CCCN(C(=O)CN1C(=O)NC2(CCCC2)C1=O)c1ccccc1F was tested. Which max response, negative = inhibition did it give?
Answer: The max response, negative = inhibition was inactive: -4.26%.

Question: With C=C(C)COc1ccc(-c2n[nH]c(C)c2-c2ccccc2)c(O)c1 as the compound, how does the max response, negative = inhibition read?
Answer: Its max response, negative = inhibition is inactive: -10.5%.

Question: Which Potency does the source give for O=C(CCCSc1nc2ccccc2[nH]1)N1CCN(c2ccc([N+](=O)[O-])cc2)CC1 here?
Answer: The Potency was inconclusive: 31.6 µM [inhibitor, single point].

Question: With Cc1ccc(C(=O)NCc2ccccc2)cc1NC(=O)c1nsc2ccccc12 as the compound, how does the Potency read?
Answer: Its Potency is inconclusive: 31.6 µM [inhibitor, single point].

Question: Cc1ccc(NC(=O)c2oc3ccccc3c2NC(=O)C23CC4CC(CC(C4)C2)C3)cc1 was tested. Which Potency did it give?
Answer: Its Potency is inconclusive: 6.31 µM [inhibitor, single point].

Question: With Clc1ccc(-c2csc(N3CCN(c4ccccc4)CC3)n2)cc1 as the compound, how does the Potency read?
Answer: Its Potency is inconclusive: 31.6 µM [inhibitor, single point].

Question: For CCOC(=O)N1CCN(C(=O)c2ccccc2NC(=O)c2ccc(C(C)(C)C)cc2)CC1, which Potency is on record?
Answer: Its Potency is inconclusive: 39.8 µM [activator, single point].

Question: CN(Cc1ccc(F)cc1)S(=O)(=O)c1nnc(NC(=O)c2ccccc2)s1 was tested. Which Potency did it give?
Answer: The Potency was inconclusive: 25.1 µM [inhibitor, single point].

Question: With Cc1c(C(=O)NCC(C)C)sc2nc(-c3ccc(F)cc3)cn12 as the compound, how does the Potency read?
Answer: The Potency was inconclusive: 25.1 µM [inhibitor, single point].

Question: With CC(=O)Nc1ccc(S(=O)(=O)NC2=C(N3CCN(Cc4ccccc4)CC3)C(=O)c3ccccc3C2=O)cc1 as the compound, how does the max response, negative = inhibition read?
Answer: The max response, negative = inhibition was inactive: -0.532%.

Question: For COc1ccc(-c2c(C)nc(N)nc2-c2ccc(OCc3ccc(C)cc3)cc2O)cc1OC, which Potency is on record?
Answer: Its Potency is inconclusive: 3.16 µM [inhibitor, partial curve, poor fit].

Question: Which Potency does the source give for CCCCCCCCNC(=O)CC(NS(=O)(=O)c1ccc(NC(C)=O)cc1)C(C)C (stereo not given) here?
Answer: The Potency was inconclusive: 39.8 µM [activator, single point].

Question: O=C(CSc1nnc(-c2ccc(Cl)cc2Cl)n1C1CCCCC1)N1CCCC1 was tested. Which Potency did it give?
Answer: Its Potency is inconclusive: 39.8 µM [activator, single point].

Question: Cc1nn(-c2cc(C)c3ccccc3n2)c2c1CCC2 was tested. Which Potency did it give?
Answer: Its Potency is inconclusive: 31.6 µM [activator, single point].

Question: With CSc1ccc(-c2c(C#N)c(N)nc3c2c(C)nn3-c2ccccc2)cc1 as the compound, how does the Potency read?
Answer: Its Potency is inconclusive: 39.8 µM [inhibitor, single point].

Question: Cc1ccc2oc(-c3cc(NC(=O)c4oc5ccccc5c4C)ccc3Cl)nc2c1 was tested. Which Potency did it give?
Answer: Its Potency is active: 3.16 µM.

Question: How did the max response, negative = inhibition turn out when Cc1cc(C)c(S(=O)(=O)NCCC2CCCN2C)c(C)c1 (stereo not given) was run?
Answer: Its max response, negative = inhibition is inactive: -4.57%.

Question: Which Potency does the source give for COc1ccccc1N1CCN(S(=O)(=O)CCNC(=O)Cc2ccc(Cl)cc2)CC1 here?
Answer: Its Potency is inconclusive: 31.6 µM [activator, single point].

Question: O=C(c1cc(C(F)(F)F)cc(C(F)(F)F)c1)N1CCC2(CCN(Cc3nccs3)CC2)CC1 was tested. Which max response, negative = inhibition did it give?
Answer: Its max response, negative = inhibition is inactive: -0.296%.

Question: Which max response, negative = inhibition does the source give for Cc1cc2c(cc1S(=O)(=O)CCC(=O)N1CCCCC1C)OCC(=O)N2 (stereo not given) here?
Answer: Its max response, negative = inhibition is inactive: -13.2%.

Question: How did the Potency turn out when Cc1ccc(C)c(Nc2nn3c(=O)c4cc5c(cc4nc3s2)OCO5)c1 was run?
Answer: The Potency was inconclusive: 20 µM [activator, single point].

Question: How did the Potency turn out when O=C(Nc1cnn(Cc2ccc(Cl)cc2Cl)c1)c1noc2c1CCc1ccccc1-2 was run?
Answer: Its Potency is active: 7.94 µM.

Question: COc1ccc(C(CC(=O)Nc2cc(OC)c(OC)c(OC)c2)N2Cc3ccccc3C2=O)cc1 (stereo not given) was tested. Which Potency did it give?
Answer: The Potency was inconclusive: 39.8 µM [activator, single point].

Question: For COc1ccc(CCNS(=O)(=O)c2cc(-c3onc(C)c3C)ccc2OC)cc1OC, which Potency is on record?
Answer: The Potency was inconclusive: 39.8 µM [activator, single point].

Question: CC(NC(=S)NCCc1ccccc1)C(c1cccs1)N1CCN(C)CC1 (stereo not given) was tested. Which Potency did it give?
Answer: Its Potency is inconclusive: 6.31 µM [inhibitor, single point].

Question: How did the max response, negative = inhibition turn out when CN(C)/C=C1\C(=O)N(c2ccc(Cl)cc2)CS1(=O)=O was run?
Answer: Its max response, negative = inhibition is inactive: -3.84%.

Question: How did the max response, negative = inhibition turn out when COc1cc(CCNC(C)=O)c(C(=O)/C=C/c2cccc(OC)c2OC)cc1OC was run?
Answer: Its max response, negative = inhibition is inactive: -6.11%.

Question: Cc1ccc(CCNC(=O)c2c[nH]c3ccc(S(=O)(=O)Nc4cccc(C(F)(F)F)c4)cc3c2=O)cc1 was tested. Which max response, negative = inhibition did it give?
Answer: The max response, negative = inhibition was inactive: -1.05%.

Question: Which Potency does the source give for CCC1=C(c2ccc(C)cc2)S(=O)(=O)N=C1N1CCC(C(=O)NCCc2ccc(Cl)cc2)CC1 here?
Answer: Its Potency is inconclusive: 25.1 µM [activator, single point].

Question: How did the Potency turn out when CCOc1ccc(CCNC(=O)Cn2cccc2C(=O)c2ccccc2C)cc1OCC was run?
Answer: The Potency was inconclusive: 31.6 µM [activator, single point].

Question: How did the max response, negative = inhibition turn out when O=C(CC1N=C2c3ccccc3N=C(SCc3cccc(Cl)c3)N2C1=O)NCCc1ccccc1 (stereo not given) was run?
Answer: The max response, negative = inhibition was inactive: 11%.

Question: How did the Potency turn out when Cn1cnnc1Sc1cc(N2CCN(S(=O)(=O)c3ccc(Cl)c(Cl)c3)CC2)ccc1[N+](=O)[O-] was run?
Answer: Its Potency is inconclusive: 39.8 µM [inhibitor, single point].

Question: For Cc1oc(-c2ccc(C(=O)NCc3ccccc3Cl)cc2)nc1CN1CCc2ccccc21, which Potency is on record?
Answer: Its Potency is inconclusive: 39.8 µM [inhibitor, single point].

Question: COc1cc2c(cc1NC(=O)Nc1cccc(C)c1)oc1ccccc12 was tested. Which Potency did it give?
Answer: Its Potency is inconclusive: 31.6 µM [inhibitor, single point].

Question: With COc1ccc(C)cc1NC(=O)c1cc(S(=O)(=O)N2CCc3ccccc3C2)ccc1F as the compound, how does the Potency read?
Answer: Its Potency is inconclusive: 39.8 µM [inhibitor, single point].

Question: CC(C)[C@@H]1NC(=O)c2cc([N+](=O)[O-])cc(I)c2NCC[C@@H](C(N)=O)NC(=O)[C@H](CO)NC1=O was tested. Which Potency did it give?
Answer: Its Potency is inconclusive: 39.8 µM [activator, single point].

Question: For COc1cc(/C=C2\SC(N3CCc4ccccc4C3)=NC2=O)cc(OC)c1OC, which Potency is on record?
Answer: Its Potency is inconclusive: 39.8 µM [activator, single point].

Question: For COc1ccc(-c2noc(C3CCCN(C(=O)c4ccccc4OC)C3)n2)cc1OC (stereo not given), which Potency is on record?
Answer: Its Potency is inconclusive: 31.6 µM [activator, single point].

Question: Which max response, negative = inhibition does the source give for CCCOc1ccc(-c2cnc(SCC(N)=O)nc2N)cc1 here?
Answer: Its max response, negative = inhibition is inactive: -6.37%.
